Results on 84 molecules are retold here after ChEMBL document CHEMBL4888484, “Replenishing the malaria drug discovery pipeline: Screening and hit evaluation of the MMV Hit Generation Library 1 (HGL1) against asexual blood stage Plasmodium falciparum ,using a nano luciferase reporter read-out” (2022).

Structures are written as SMILES. Out of some 150,000 compounds screened, about 540 (0.36%) showed an effect of 50% or more. The list shows a part of the results.

The test concerns Plasmodium falciparum. The test can be described thus: Primary screen in NF54 nanoGlo assay, in single point, at 2uM, 72h; a lower Z score goes with more inhibition. Format: functional, Erythrocyte. The conditions noted are these: timepoint 72 hour.
For the molecule `CCN1CC2(CCN(C(=O)[C@@H]3CCCCN3C(=O)OC)CC2)CC1=O`, the “% Inhibition” value was -24% and the Z score was 2.81.
Take `CNC(=O)c1ccc(CNc2ncnc3nc(N)ccc23)cc1`: the “% Inhibition” value amounted to 22% and the Z score was -2.58.
Taken in the same sequence, the figures for `Cc1cccc2c1NC(=O)[C@]21N2CCC[C@H]2[C@@H](C(=O)c2cc3ccccc3o2)[C@]12C(=O)Nc1ccccc12` were -9% and 1.12.
For `COC[C@H](NS(=O)(=O)N1CCCC1)c1cccc(OC)c1`, the “% Inhibition” value is given as -11% and the Z score is 1.18.
For the molecule `OC1=Nc2c(ncn2-c2cccnc2)[C@@H](c2cc(F)ccc2F)C1`, the “% Inhibition” value is on record as -1% and the Z score worked out at 0.22.
On to `CCCc1noc(-c2cccn3c(CC(=O)Nc4cccc(F)c4)nnc23)n1`, for which the “% Inhibition” value is on record as -5% and the Z score came out at 0.8.
`Cc1c(Cl)cccc1NC(=O)COc1ccc(-c2cnccn2)cc1CN(C)C`: the “% Inhibition” value is 0% and the Z score was -0.04.
Taken in the same sequence, the figures for `O=C(Nc1c(C(=O)N(Cc2ccco2)C[C@H]2CCCO2)oc2ccccc12)C1CCCC1` were -4% and 0.41.
Taken in the same sequence, the figures for `O=C(c1ccc2c(c1)OCO2)N1CC(c2nc(-c3cccs3)no2)C1` were -11% and 2.05.
`CN(C)c1cc(CNC2CCCCC2O)ccn1` (stereo not drawn): the “% Inhibition” value is -2% and the Z score was 0.23.
Regarding `O=C(CN1CCN(c2ccccc2)C1=O)N1CC[C@H](Oc2ncccn2)C1`, the “% Inhibition” value is -24% and the Z score was found to be 3.77.
In the case of `CCCC1(CCC)NC(=O)N(CC(=O)N2CCc3cc(OC)c(OC)cc3C2)C1=O`, the “% Inhibition” value was -1% and the Z score is reported as 0.1.
Taken in the same sequence, the figures for `Cc1ccc(-n2nc3ccc(NC(=O)c4ccc5c(c4)OCO5)cc3n2)cc1` were -4% and 0.45.
Take `N#Cc1ccc(S(=O)(=O)Nc2ccc(-n3nn[nH]c3=O)cc2)cn1`: the “% Inhibition” value is on record as -9% and the Z score is recorded as 0.89.
Taken in the same sequence, the figures for `Cn1cc(NC(=O)NCCc2csc(-c3ccccc3)n2)cn1` were 3% and -0.49.
In the case of `CC1CN(C(=O)C(C)c2cccnc2)CC(C)N1` (stereo not drawn), the “% Inhibition” value is on record as -11% and the Z score came to 1.5.
Taken in the same sequence, the figures for `C[C@H](Oc1ccccc1Br)C(=O)N(C)C` were -4% and 0.49.
`O=C(Cn1cncn1)NC1CCCCCC1`: the “% Inhibition” value was -6% and the Z score was determined as 0.87.
Taken in the same sequence, the figures for `CCc1cnc(CNC(=O)N[C@@H](CC)CO)s1` were 20% and -2.32.
For the molecule `O=C(NC(Cc1ccc2c(c1)OCO2)C(=O)N1CCCC1C(=O)O)c1ccccc1` (stereo not drawn), the “% Inhibition” value is given as -10% and the Z score is recorded as 1.52.
As to `Cc1nn(Cc2cccc(F)c2)c(C)c1NC(=O)c1cccc(COc2ccc(Br)cc2)c1`, the “% Inhibition” value was found to be 37% and the Z score is given as -1.8.
Taken in the same sequence, the figures for `O=C(CN1C(=O)C2C3CC(c4ccccc4)C(C3)C2C1=O)Nc1nccs1` (stereo not drawn) were 7% and -0.89.
On to `CN1C(=O)N(c2ccc(-n3ccnn3)cc2)C(=O)[C@H]1c1cc(F)c(F)c(F)c1`, for which the “% Inhibition” value is -11% and the Z score stood at 1.14.
Taken in the same sequence, the figures for `COC(=O)c1cc(S(=O)(=O)N2CCC[C@H]2C(=O)Nc2ccc(F)cc2C)cn1C` were -11% and 2.16.
As to `C#CCCC1(CCC(=O)N2CC(=O)NCC2(C)C)N=N1`, the “% Inhibition” value is given as -2% and the Z score is given as 0.39.
For `COc1ccccc1OC1(C(=O)O)CCN(c2cc(C3CC3)ncn2)CC1`, the “% Inhibition” value is listed as -6% and the Z score is 0.78.
Consider `CCc1ccc(NC(N)=NCc2c(C)noc2C)cc1`, for which the “% Inhibition” value is reported as -2% and the Z score is given as 0.24.
Taken in the same sequence, the figures for `COc1ccc(Nc2nc(N3CCN(c4nc(-c5ccccc5)cs4)CC3)nc3ccccc23)c(OC)c1` were -7% and 1.02.
Taken in the same sequence, the figures for `CC[C@H](OC)c1n[nH]c(=O)n1-c1ccc2ccccc2c1` were 5% and -0.83.
Taken in the same sequence, the figures for `COc1ccc(-c2cnc3ncnn3c2N2CCN(C(=O)Nc3ccccc3OC)CC2)cc1` were -14% and 1.9.
`CC1(C)CCC(NC(=O)COC[C@H]2CCCO2)CC1`: the “% Inhibition” value was -11% and the Z score was 1.45.
Taken in the same sequence, the figures for `CCC(=O)Nc1ccc(Oc2c(C)c(C(=O)O)nn2-c2ccccc2C)c(S(=O)(=O)N[C@@H](C)CC)c1` were -10% and 0.97.
Taken in the same sequence, the figures for `NC(=O)N1CCC[C@H](C(=O)N2CCc3c(Cl)cccc3C2)C1` were -9% and 1.89.
Take `O=C(Cc1ccnc(O)c1Br)N1CC2(CCC2)c2ccccc21`: the “% Inhibition” value is recorded as -15% and the Z score was determined as 2.5.
Taken in the same sequence, the figures for `COCCNC(=O)CN(C)C(=O)c1cccc(C)c1Cl` were -2% and 0.26.
Taken in the same sequence, the figures for `CCN1CCN([C@H](c2ccccc2Cl)c2oc3ccccc3c2NC(=O)c2ccccc2)CC1` were -10% and 1.55.
Taken in the same sequence, the figures for `CC(=O)Nc1ccc(S(=O)(=O)NC2(c3nc(C)no3)CCCCC2)cc1` were -3% and 0.55.
Consider `CC(C)c1nnc(CNc2ncc(C#N)cc2Cl)n1C`, for which the “% Inhibition” value is listed as -9% and the Z score turned out to be 1.17.
For `O=C(NC(C1CCCCC1)C(F)(F)F)N[C@H]1CCO[C@@H]1c1cccnc1` (stereo partly drawn), the “% Inhibition” value was -12% and the Z score is 1.9.
`COCCCNc1cc(C)c(F)cc1C(N)=O`: the “% Inhibition” value is -14% and the Z score was found to be 2.22.
Taken in the same sequence, the figures for `CC(=O)N1C[C@@H]2OCC(=O)N(CC3CCCCC3)[C@@H]2C1` were 3% and -0.55.
Taken in the same sequence, the figures for `COCCOCc1nc([C@@H]2CCCN2S(=O)(=O)c2ccc(F)c(C)c2)no1` were -2% and 0.31.
Taken in the same sequence, the figures for `C[C@@H](c1ccc2c(c1)OCCO2)N(C)Cc1cc(C2CC2)n[nH]1` were -8% and 1.24.
For `CO[C@H]1COC[C@@H]1NS(=O)(=O)N1CCCCCC1`, the “% Inhibition” value is 0% and the Z score is 0.03.
As for `COc1cc(Br)c(F)cc1S(=O)(=O)N[C@@H](C)C#N`, the “% Inhibition” value is listed as 0% and the Z score came out at 0.02.
As for `Cc1ccc2c(c1)[C@@H](NC(=O)N1C[C@@H](c3nnc(C)o3)O[C@@H](C)C1)[C@H](C)C2`, the “% Inhibition” value was -3% and the Z score was 0.4.
Taken in the same sequence, the figures for `CNc1nc(C)cc(N2CCC[C@@]3(CCC(=O)N(Cc4cccnc4)C3)C2)n1` were -12% and 1.17.
Taken in the same sequence, the figures for `CNc1ccnc(N2CC(=O)N[C@H](C)C2)n1` were -8% and 1.53.
With `CCn1ncnc1CN(C/C=C/c1ccccc1)C1CC1`, the “% Inhibition” value came to 1% and the Z score is listed as -0.27.
Taken in the same sequence, the figures for `Cc1nc(NC[C@@]2(C)CC2(F)F)cc(-c2cccnc2)n1` were 1% and -0.1.
Taken in the same sequence, the figures for `CC(C)(C)C1CS(=O)(=O)CCN1C(=O)[C@H]1CCCO1` (stereo partly drawn) were -4% and 0.49.
`Cc1cnc(CN(C)CC2(CO)CCC2)cn1`: the “% Inhibition” value is -12% and the Z score turned out to be 1.61.
In the case of `C(#Cc1cccs1)c1cnc2ccccc2c1`, the “% Inhibition” value was -17% and the Z score was found to be 2.02.
Taken in the same sequence, the figures for `Cc1nnc2n1[C@@H](C)CN(C(=O)CCc1ccnn1C)C2` were -2% and 0.4.
Turning to `NC(=O)[C@]1(c2ccccc2)CCN(Cc2ccccc2F)C1`, the “% Inhibition” value was -6% and the Z score is 0.61.
Taken in the same sequence, the figures for `CC(C)[C@H](NC(=O)CCc1cccc(F)c1F)C(=O)O` were -9% and 1.21.
Regarding `CC(C)CCN[C@H]1[C@H](O)[C@@H](n2cnc3ccccc32)[C@@H]2OC[C@H]1O2`, the “% Inhibition” value was -5% and the Z score is 0.81.
Taken in the same sequence, the figures for `Cc1ncsc1CCS(=O)(=O)CC(C)C` were 7% and -1.
In the case of `CCn1ncc(Br)c1C(=O)Nc1cnn(CC)c1C(=O)N1CCOCC1`, the “% Inhibition” value is on record as -8% and the Z score was found to be 1.26.
Taken in the same sequence, the figures for `CCn1cc(CCN2CCCS2(=O)=O)cn1` were -7% and 1.14.
Taken in the same sequence, the figures for `CNS(=O)(=O)c1ccc2c(c1)N(Cc1ccc3cn[nH]c3c1)CC2` were -10% and 1.04.
For the molecule `Cc1nnc(NC2CCN(c3ncccn3)CC2)c(C#N)c1C`, the “% Inhibition” value is -8% and the Z score is 0.92.
For `CN(C)CCN(C)C(=O)Nc1cc(F)c(C(F)(F)F)c(F)c1`, the “% Inhibition” value is reported as -3% and the Z score is recorded as 0.46.
Taken in the same sequence, the figures for `O=C(NCc1cccc(C(F)(F)F)c1)c1nnn2c1c(=O)[nH]c1cc(F)ccc12` were 6% and -1.11.
As to `O=C(Nc1cc(-c2ccccn2)no1)c1cc(F)ccc1F`, the “% Inhibition” value is given as -10% and the Z score is 0.97.
`CCc1n[nH]c2c1CN(CCC(=O)NCc1cccs1)CC2`: the “% Inhibition” value was -6% and the Z score is on record as 1.17.
As for `COCCC1(CNC(=O)Nc2nc3c(s2)CCCC3)CC1`, the “% Inhibition” value is recorded as -4% and the Z score is reported as 0.74.
For `O=C(NCc1ccc(Br)cc1)C1CCN(c2cnc3nccnc3c2)CC1`, the “% Inhibition” value is on record as -4% and the Z score worked out at 0.71.
Turning to `COc1ccc(CCC(=O)N2CCC[C@H]2c2ccncc2)cc1Cl`, the “% Inhibition” value is listed as -15% and the Z score came to 2.22.
Taken in the same sequence, the figures for `N#Cc1ncn(CC(=O)Nc2nc(-c3ccccc3)cs2)c1C#N` were -10% and 0.97.
Taken in the same sequence, the figures for `CN(Cc1ccccc1OC(F)(F)F)CN1C(=O)CC(C)(C)C1=O` were -10% and 1.32.
Taken in the same sequence, the figures for `CCC[C@H]1CN(C(C)=O)C[C@@H]1NC(=O)CN1C(=O)NC(=O)C1(C)C` were -23% and 4.45.
With `NC(=O)CC[C@H]1CCCN(C(=O)c2nn(-c3cccc(Br)c3)c3c2CCCC3)C1`, the “% Inhibition” value was -3% and the Z score came to 0.35.
Taken in the same sequence, the figures for `CCCc1nc(NC[C@H]2CC[C@H](CO)CC2)no1` were -12% and 1.18.
Taken in the same sequence, the figures for `Cc1cc(C(=O)NCc2cccnc2N2CCOCC2)no1` were -9% and 1.4.
With `Clc1ccc(CN2CCCC[C@@H]2CCn2ccnc2)s1`, the “% Inhibition” value is listed as -1% and the Z score is on record as 0.09.
Take `CN(C)c1ccc(CN2CC[C@H](n3cc(C4CC4)nn3)C2)cn1`: the “% Inhibition” value is -1% and the Z score is reported as 0.1.
Take `Cc1cccc(N2CCN(C(=O)Nc3cn(CC(C)C)c(=O)c4ccccc34)CC2)c1C`: the “% Inhibition” value came out at 8% and the Z score is reported as -1.44.
Taken in the same sequence, the figures for `Cn1cnnc1CC1CCN(C(=O)c2ccccc2)CC1` were -7% and 0.78.
For `CNS(=O)(=O)c1ccc(-c2cccs2)c(C(=O)N2CCc3ccccc32)c1`, the “% Inhibition” value came to 9% and the Z score is given as -1.68.
Taken in the same sequence, the figures for `O=C(NCc1cccc(F)c1)c1ccnc(-c2ccsc2)c1` were -12% and 1.54.
As for `CN(Cc1ccccc1)Cc1cncc(-c2ccccc2F)c1`, the “% Inhibition” value worked out at 31% and the Z score is -3.86.
Taken in the same sequence, the figures for `O=C(Cn1cnc2ccccc2c1=O)N1CCC(n2c(=O)[nH]c3ccccc3c2=O)CC1` were -7% and 0.91.
Taken in the same sequence, the figures for `CC1CN(C(=O)c2cc(Br)cnc2N(C)C)CC(C)N1` (stereo not drawn) were -8% and 1.21.

As usually defined, the % Inhibition is the relative decrease from the control value, in per cent.
